Reference: PMC12040169 (PLOS Biology, 2025)
The list shows a part of the results.

tested on: T1, C. trachomatis L2/434/Bu expressing GFP (CTL2-GFP); set-up: species or system HeLa; C. trachomatis total inclusion area by high-content imaging, normalised to DMSO; details: total inclusion area; 28.5 h, 10 µM; inhibitor
T1 construct: L2/434/Bu GFP intracellular growth in HeLa cells
Summary of the method: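 Bulk GFP and resorufin signals were read first. Wells were then fixed, stained with Hoechst and imaged to detect GFP inclusions and host nuclei. MICs followed the previously described calculation.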

SMILES	% of control remaining
CC(=O)c1ccccc1-c1cnc(N(C)S(C)(=O)=O)c(C(=O)NCCc2ccccc2)c1 [CBK076516]	101.983
Fc1cccc(-c2nc(-c3cccnc3)no2)c1 [CBK270260]	114.247
N=C(N)SCCCCSC(=N)N [CBK278304B]	99.9341
CN1CCN(C(=S)SCc2nc(N)nc(Nc3ccc(F)cc3)n2)CC1 [CBK265230]	92.0748
CCC1(CC)OC(N[C@@H](CO)c2ccccc2)=NC1=O [CBK126756]	89.5182
O=C(CN1CCC(c2ccc(F)cc2)CC1)Nc1nccs1 [CBK283566]	75.0182
O=C(O)c1ccc(NC2OC(CO)C(O)C2O)cc1 (centres unmarked) [CBK218836]	106.097
CCN(C(=O)c1ccc(=O)[nH]c1)C(CC1CCCCC1)c1ccccc1 (centres unmarked) [CBK062678]	21.7228
CN1[C@@H](CCC(=O)N2CCN(c3ccccn3)CC2)CNC(=O)[C@H]2NCC[C@H]21 [CBK289031]	95.0821
COC(=O)Cn1c(=O)c2c(nc3oc(C(C)(C)C)cn32)n(C)c1=O [CBK306029]	59.5283
O=C(NCCSCc1c(F)cccc1Cl)Nc1ccccc1 [CBK265340]	91.2961
COc1ccc(-c2cn(-c3ccc(OC(F)(F)F)cc3)nn2)cc1 [CBK113024]	92.808
CCOCCCNC(=O)c1cnn2c(C)c(Cc3cccnc3)c(C)nc12 [CBK162152]	23.7878
COc1c(Cl)ccc(Cl)c1C(=O)OCC(=O)O [CBK264596]	94.4762
FC(F)(F)c1ccnc(SCCc2ccccn2)c1 [CBK103709]	103.53
CCCNc1nc(-c2cc(OC)c(OC)c(OC)c2)cn2ccnc12 [CBK066363]	110.544
Cc1nn(C)c(N2CCNCC2)c1NC(=O)/C=C/c1cccnc1 [CBK050354T]	95.877
O=C(CN1CCCC2(CCN(C(=O)c3ccoc3)C2)C1)Nc1ncccn1 (centres unmarked) [CBK137140]	99.5785
O=C(Nc1cccnc1)c1c(O)n(Cc2ccccc2)c2ccccc2c1=O [CBK291206]	95.7168
Cc1nn(C)c(Cl)c1CN(CCC#N)Cc1ccco1 [CBK304825]	35.8179
S=C(NCCc1c[nH]c2ccccc12)NCc1ccco1 [CBK267157]	123.277

SMILES	% of control remaining
CC(C)NC(=O)CSc1nc2ccccc2[nH]1 [CBK072235]	88.0679
O=C(NCCC1SC(NC2CCCCCC2)=NC1=O)Nc1ccc(F)cc1F (centres unmarked) [CBK067469]	53.4256
O=C(Cn1cnc2ccccc21)N1CCC(c2ccccc2)C1 (centres unmarked) [CBK281845]	113.816
Cc1cccc(Nc2nc(N)nc(CC(=O)CSc3ccc(Cl)cc3)n2)c1 [CBK265204]	89.8804
COc1c(O)ccc(/C=N/NC(=O)c2cccnc2)c1[N+](=O)[O-] [CBK262197]	78.017
C#CCNC(=O)N1CCC(c2c[nH]c3ccccc23)CC1 [CBK305034]	32.2837
CC(C)C(=O)N1CCC(c2[nH]ncc2-c2ccncc2)CC1 [CBK284237]	86.3166
CCCN(C(=O)CCc1ccc(C)cc1C)C1CCNCC1 [CBK304302C]	68.4279
Cc1cc(CN(C)C(=O)Cc2csc(NC(=O)c3ccoc3C)n2)no1 [CBK305779]	36.1553
O=C(NC[C@H]1C[C@@H]2CC[N@]1C[C@@H]2CN1CCN(c2ccccn2)CC1)c1ccco1 [CBK288867]	91.9345
Cc1cccc(C(N)=O)c1O [CBK012294]	94.3882
CC(=O)N1C[C@H](c2ccsc2)[C@H]2CN(Cc3cccs3)CC[C@H]21 [CBK284586]	72.7743
CCc1ccc(S(=O)(=O)Nc2ccc(O)c(C(=O)O)c2)cc1 [CBK299827]	63.8485
Oc1cccc(Sc2nccc(C(F)(F)F)n2)c1 [CBK093801]	107.235
O=C(O)CCCC(=O)N(c1ccccc1)c1ccccc1 [CBK286901]	86.3268
FC(F)(F)C1CN(C2CCCCC2)C(=S)S1 (centres unmarked) [CBK009719]	64.626
Cc1nc2n(/N=C/c3ccc([N+](=O)[O-])cc3)c3ccccc3n2c1C#N [CBK263107]	104.37
O=C(O)CCSc1nnnn1C1CCCCC1 [CBK263052]	104.995
Cc1ccccc1OCC(O)Cn1c(=N)n(CCN2CCCCC2)c2ccccc21 (centres unmarked) [CBK266698C]	71.8838
COc1ccccc1CN(Cc1cccnc1)C(=O)CNC(C)=O [CBK306843]	74.9621
Cn1cc(CN2CCCC(c3cc4ccccc4cn3)C2)cn1 (centres unmarked) [CBK285042]	78.2603

SMILES	% of control remaining
Cc1ccc(NC(=O)c2cc(C(=O)Nc3ccc(C)c(C)c3)cc(N3C(=O)c4ccccc4C3=O)c2)cc1C [CBK261328]	106.541
CCOc1cccc(-c2cncc(NCc3cccs3)n2)c1 [CBK066034]	85.4136
O=c1/c(=C/c2ccc3c(c2)OCO3)sc2nc3cc(Br)cnc3n12 [CBK262550]	104.968
O=c1[nH]c2ccccc2n1C1CCN(CCOC(c2ccc(F)cc2)c2ccc(F)cc2)CC1 [CBK099807G]	100.308
CC(CCCC(C)(C)O)Nc1cncc(-c2cccc(Cl)c2)n1 (centres unmarked) [CBK037857]	92.2498
CCOC(=O)c1ccoc1CN1CCCC1c1ccsc1 (centres unmarked) [CBK304878]	57.5273
O=c1c2scc(-c3cccc(F)c3)c2ncn1Cc1ccc(F)cc1 [CBK287810]	63.9154
COc1cc2c(cc1OC)C(C)N(Cc1cc(C)c(O)c(C)c1)CC2 (centres unmarked) [CBK074659C]	13.0819
CCCS(=O)(=O)N1CCN(CCN2C(=O)c3cccc4cccc(c34)C2=O)CC1 [CBK265559]	87.2119
Cc1cc(NC(=O)c2cccs2)nc2c1c(=O)oc1ccccc12 [CBK287439]	107.057
CCn1ncc(CN2CCC(c3onc4c3CCCC4)CC2)c1C [CBK284576]	92.2222
Cc1nc(CN2CCCC3(CCN(C(=O)c4ccoc4)C3)C2)cs1 (centres unmarked) [CBK132838]	87.5219
COc1ccc(Br)cc1C1CCCN1C(=O)Cc1cnccc1C (centres unmarked) [CBK304130]	81.311
CCN1CCN(C(=O)c2csnn2)CC1 [CBK200376]	105.114
Oc1cc2cccnc2nc1-c1ccccc1 [CBK073697]	75.532
O=C1Nc2ccccc2C1Cc1cccc(OC(F)F)c1 (centres unmarked) [CBK287892]	86.6949
O=C(NC(=S)Nc1ccc2oc(-c3cccc4ccccc34)nc2c1)c1ccco1 [CBK263691]	111.719
CC1CCc2nn(CCNC(=O)C3CCCC3)c(=O)cc2C1 (centres unmarked) [CBK284484]	106.147
COc1cnc(-c2ccc(Cl)cc2Cl)c(NC(=O)Cc2ccccc2)n1 [CBK145398]	105.26
CN(C)c1ccc(-c2cc(NCCc3ccncc3)ncn2)cc1 [CBK090849]	116.729
CCc1cc(C(=O)N2CCC(Oc3ccc(F)cc3)CC2)n(C)n1 [CBK282034]	71.8202

SMILES	% of control remaining
O=C(c1ccncc1)N1CCCC(c2cc3ccccc3cn2)C1 (centres unmarked) [CBK285166]	94.9795
CCNC(=S)N1CC[C@@H]2N(C)CC[C@]2(c2ccc(OC)c(OC)c2)CC1 [CBK059113T]	78.3515
Cc1nc2n(CCN3CCCCC3)c3ccccc3n2n1 [CBK278258C]	84.3937
O=C(COC(=O)c1ccc(Cl)c(Cl)c1)c1ccc(Oc2ccc([N+](=O)[O-])cc2)cc1 [CBK264821]	91.9449
Cc1ccc(S(=O)(=O)Nc2ccc(N3CCCNCC3)cc2N(C)S(C)(=O)=O)cc1 [CBK000017C]	74.1486
O=C(COc1ccc(F)cc1)N1CCC2(CCNC2)C1 (centres unmarked) [CBK156691C]	116.946
O=C(COC(=O)c1cc(-c2ccc(Cl)cc2)nc2ccccc12)c1cccc([N+](=O)[O-])c1 [CBK293923]	119.669
C/C(=N\NC(=O)CCc1c(C)n[nH]c1C)c1ccc(N)cc1 [CBK262935]	92.3388
NC(=O)N/N=C/c1cc(Br)cs1 [CBK026434]	66.6754
CCCc1[nH]nc(O)c1CCc1cccc(OC)c1OC [CBK075078]	112.438
CC1CN(CCNCc2cn(C)nc2-c2cccnc2)CC(C)O1 (centres unmarked) [CBK305151]	51.6123
O=C(CCCc1nc(-c2ccccc2Cl)no1)Nc1cccnc1 [CBK269122]	133.284
FC(F)(F)c1ccnc(SCCc2ccncc2)n1 [CBK105302]	131.199
COc1ccc(NC(=O)C2CC3CCC2C3)cc1S(=O)(=O)Nc1ccc(Cl)cc1 (centres unmarked) [CBK297945]	80.551
CCCc1n[nH]c(=S)n1CC(=O)NCc1ccc(OCCC(C)C)c(OC)c1 [CBK297743]	98.919
CC(=O)Nc1cccc(CN(CCCCO)C2CC2)c1 [CBK304806]	80.2603
N#Cc1ccccc1Cn1ccc2c(N3CCNCC3)cccc21 [CBK200015C]	103.887
COc1ccc([C@@]23CC[C@@H](NC(=O)Nc4ccc5ccccc5c4)C[C@@H]2N(C)CC3)cc1OC [CBK034181T]	93.6525
CSc1nc(N)c2nccnc2n1 [CBK025779]	61.9488
COc1ccc(C)cc1NC(=S)NCc1cnn(C)c1 [CBK267025]	86.7617
